{"source": "PubChem BioAssay AID686978", "about": "(National Center for Advancing Translational Sciences (NCATS), 2013)", "note": "Hit rate of the full screen: of about 420,000 compounds, about 64,000 (15%) were called active. The shares of active, inactive and inconclusive entries below differ from those in the screen. Calls follow the shape of the dose curve; as a rule, active = well fitted inhibition curve with a large enough effect; inconclusive = small, poorly fitted or top-dose-only effect; inactive = flat fitted curve, though single readings scatter. No potency is given beside an inconclusive call; the fits are too rough. Potency is read from the fitted curve at half-maximal effect; tags tell the direction and shape of the fitted curve.", "data": [{"experiment": "qHTS for Inhibitors of human tyrosyl-DNA phosphodiesterase 1 (TDP1): qHTS in cells in absence of CPT; also: nearly all actives have a fitted effect of over 55% in size", "conditions": "DT40 Tdp1-/- hTDP1 cells, no CPT, ATP luminescence, 48 h; series mostly up to 46.2 µM", "method_in_brief": "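Growth of hTDP1-complemented DT40 Tdp1-knockout cells is measured by ATP luminescence after at least 48 hr compound exposure at 37 °C, with DMSO substituting for the 20 nM CPT used in the parallel screen.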", "values": [{"smiles": "CS(=O)(=O)C1=NSC2=NC(=O)/C(=C\\c3ccc(OC(=O)c4ccco4)c(Br)c3)C(=N)N21", "Potency": "inconclusive [inhibitor, full curve, poor fit]"}]}]}
